Source: PubChem BioAssay AID1745845 (National Center for Advancing Translational Sciences (NCATS), 2022)
The campaign covered roughly 360,000 compounds. About 2,600 (0.72%) were called active. This list was built around the results that the source calls inconclusive (neither active nor inactive); the mix of calls is not that of the screen. The call rests on the fitted dose curve; in most records, active means well fitted inhibition curve with a large enough effect; inconclusive means small, poorly fitted or top-dose-only effect; inactive means no such curve, though single readings can be large or run the other way. A potency beside an inconclusive call is a rough fit, not a confirmed value.

Experiment: Primary qHTS for Inhibitors of ATXN expression; further: nearly all actives have a fitted effect of over 55% in size
Settings: HEK-293 ATXN2-luciferase reporter, luminescence, 24 h; series mostly up to 57 µM
Summary of the method: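 qHTS (up to 57 uM final) was run with 24 h compound exposure of reporter cells at 37 °C. Each well was multiplexed: SteadyGlo luminescence measured ATXN2-luciferase expression after a fluorogenic Gly-Phe-AFC viability readout (25 uM final).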
Potency means the concentration at half of the fitted maximal effect; tags describe the fitted curve by direction and shape.

SMILES | Potency
COc1ccc2c(c1)/C(=C/c1cnc[nH]1)C(=O)N2 | inconclusive: 12.6 µM [inhibitor, partial curve, poor fit]
Cc1cc(C)nc(N2Cc3ccccc3C2=N)n1 | inconclusive: 29.9 µM [inhibitor, single point]
CC(C)c1oc(=O)cc2c1[C@@H](O)[C@H]1OC(=O)[C@@]3(C)C[C@@H](O)[C@@H](O)[C@@]2(C)C13 (some centres undefined) | inconclusive: 7.08 µM [inhibitor, full curve]
COCCCNC(=O)c1c(NC(=O)c2ccco2)n(Cc2ccccc2)c2nc3ccccc3nc12 | inactive
O=C1NC(=O)N(CCc2ccc(F)cc2)C(=O)/C1=C/c1cccs1 | inconclusive: 29.9 µM [inhibitor, partial curve, poor fit]
O=C1NCN(c2ccccc2)C12CCN(C(c1ccccc1)c1nnnn1Cc1ccccc1)CC2 (centres undefined) | inconclusive: 39.8 µM [inhibitor, single point]
Oc1c(Cl)c(Cl)c(Cl)c(Cl)c1Cl | inconclusive: 31.6 µM [inhibitor, single point]
Nc1c(C(=O)NCc2ccco2)c2nc3ccccc3nc2n1Cc1ccc(F)cc1 | inconclusive: 35.5 µM [inhibitor, partial curve, poor fit]
CNC(=O)Oc1ccc(-c2cn3cc(C)ccc3n2)cc1 | active: 8.91 µM
O=C(NCC1=C(c2cccc3ccccc23)C[C@@H]2CC[C@H]1N2Cc1ccco1)c1cccs1 | inconclusive: 28.2 µM [inhibitor, single point]
CCOC(=O)[C@]12Cc3cc(OC)ccc3[C@H]1N(Cc1ccccc1)C(=O)c1ccccc12 | inconclusive: 25.1 µM [inhibitor, single point]
C=C1[C@@H](C)[C@H]2[C@H](Cc3ccccc3)NC(=O)[C@]23OC(=O)/C=C/[C@H](O)CCC[C@@H](C)C/C=C/[C@H]3[C@@H]1O | inactive
CC(=O)CC(C)(C)n1c[n+](C)nn1 | inactive
CCCCCN1C(=O)c2cc(OC)ccc2[C@@]2(C(=O)OCC)Cc3cc(Cl)ccc3[C@@H]12 | active: 7.08 µM
COc1cc2c(c(OC)c1OC)-c1ccc(O)c(=O)cc1[C@@H](N)CC2 | inconclusive: 37.7 µM [inhibitor, single point]
Cc1cc(C)cc(N2C(=O)NC(=O)/C(=C\C=C\c3ccco3)C2=O)c1 | inconclusive: 28.2 µM [inhibitor, single point]
CN1C(=O)/C(=C\c2ccc(Br)s2)C(=O)NC1=S | inconclusive: 8.91 µM [inhibitor, single point]
Cc1cc2ccccn2c1C(C[N+](=O)[O-])c1c(F)cccc1Cl (centres undefined) | inconclusive: 39.8 µM [inhibitor, single point]
COc1cccc(C(c2nnnn2C2CCCC2)N2CCC3(CC2)C(=O)NCN3c2ccccc2)c1OC (centres undefined) | inconclusive: 39.8 µM [inhibitor, single point]
CCCNC(=O)N1[C@H]2CC[C@@H]1C(C(=O)OC)=C(c1ccc(Cl)c(C(F)(F)F)c1)C2 | inconclusive: 35.5 µM [inhibitor, single point]
COC(=O)C1=C(c2ccc(-c3ccccc3)c(F)c2)C[C@@H]2CC[C@H]1N2C(=O)N1CCOCC1 | inconclusive: 11.2 µM [inhibitor, partial curve]
COC(=O)C1=C(c2ccccc2OCc2ccccc2)C[C@@H]2CC[C@H]1N2C | inactive

SMILES | Potency
Clc1ccc(C(OCCN2CCCCC2)c2ccccc2)cc1 (centres undefined) | inconclusive: 22.4 µM [inhibitor, full curve, poor fit]
Cc1ccc(O)c(C(=O)c2cc(C(=O)NCCC(C)C)c(=O)n(CCC(C)C)c2)c1 | inactive
COC(=O)c1ccccc1NC(=O)c1cccn(Cc2cccc(Cl)c2)c1=O | inconclusive: 17.8 µM [inhibitor, partial curve, poor fit]
CC(Cc1ccccc1)NCCC(c1ccccc1)c1ccccc1 (centres undefined) | active: 28.2 µM
N#Cc1c(Cl)nc(Cl)c2c1CCN(Cc1ccccc1)C2 | inconclusive: 39.8 µM [inhibitor, single point]
COCCCn1c(N)c(C(=O)Nc2sc3c(c2C(=O)OC)CCCC3)c2nc3ccccc3nc21 | inactive
O=Cc1cn(Cc2cccc(F)c2)c2ccccc12 | inconclusive: 17.8 µM [inhibitor, partial curve]
C[C@]12CC[C@H](O)C[C@H]1CC[C@@H]1[C@@H]2C[C@@H](O)[C@]2(C)[C@@H](C3=CC(=O)OC3)CC[C@]12O | inconclusive: 0.447 µM [inhibitor, full curve, poor fit]
CC/C(=C\C=C\[C@@H]1C=C[C@@H]2CCC[C@H]2[C@@H]1C(=O)c1ccc[nH]1)[C@@H]1O[C@@H]([C@@H](C)C(=O)O)CC[C@@H]1C | inconclusive: 39.8 µM [inhibitor, single point]
Clc1ccccc1C(c1ccccc1)(c1ccccc1)n1cccn1 | inconclusive: 21.7 µM [inhibitor, partial curve]
CCOC(=O)[C@]12Cc3cc(Cl)ccc3[C@H]1N(C1CCCCC1)C(=O)c1ccccc12 | active: 3.16 µM
O=C(CSC1c2ccccc2-c2ccccc21)N/N=C/c1ccccc1O | inconclusive: 35.5 µM [inhibitor, single point]
COC1=CC(=O)[C@]2(C=C1OC)OC[C@@H]1Oc3c(ccc4c3C=CC(C)(C)O4)C(=O)[C@@H]12 | inconclusive: 31.6 µM [inhibitor, single point]
Nc1ccc(N)cc1 | inconclusive: 35.5 µM [inhibitor, partial curve, poor fit]
C[n+]1c(-c2ccccc2)cc(-c2ccc(Cl)cc2)cc1-c1ccccc1 | inconclusive: 28.2 µM [inhibitor, single point]
c1ccc(CNc2c3c(nc4ccccc24)CCC3)cc1 | active: 17.8 µM
COc1ccc(C(c2nnnn2-c2c(C)cccc2C)N2CCC(n3c(=O)[nH]c4ccccc43)CC2)cc1 (centres undefined) | inconclusive: 31.6 µM [inhibitor, single point]
CNCC(=O)c1ccccc1 | inactive
CC(C)N1OC2CC1c1nc3ccccc3n1C2 (centres undefined) | inactive
CC(C)CCn1c(=O)c(C(=O)NCc2ccco2)c(O)c2ccccc21 | inactive
COc1cccc(NP(=O)(Oc2ccc(Cl)cc2)Oc2ccc(Cl)cc2)c1 | inactive
O=C(/C=C/c1ccc2c(c1)OCO2)c1c(O)n(CCC2=CCCCC2)c(=O)[nH]c1=O | inactive

SMILES | Potency
CCCCC(=O)N/N=C/c1c(O)n(CCc2ccccc2)c(=O)[nH]c1=O | inconclusive: 44.7 µM [inhibitor, partial curve, poor fit]
CN(C)c1ccc(/C=C/C=C/c2sc3ccccc3[n+]2C)cc1 | inconclusive: 14.1 µM [inhibitor, partial curve]
CCOc1cc2c(cc1OCC)-n1cccc1C(c1ccccc1O)NC2 (centres undefined) | inactive
O=c1[nH]c(=S)n(C2CC2)c(O)c1/C=N/Nc1cccc2ccccc12 | inconclusive: 15.8 µM [inhibitor, partial curve, poor fit]
Nc1c(C(=O)Nc2ccc(F)c(Cl)c2)sc2nc3c(cc12)N1CCC3CC1 | inconclusive: 39.8 µM [inhibitor, single point]
O=C(Cc1cc(=O)oc2cc(O)ccc12)NN=Cc1ccc(N(CCCl)CCCl)cc1 | inconclusive: 11.2 µM [inhibitor, partial curve]
CCOc1ccc(-n2c(O)c(C=Nc3ccc(N(CC)CC)cc3)c(=O)[nH]c2=O)cc1 | inconclusive: 39.8 µM [inhibitor, single point]
COC(=O)C1=C(c2ccc(F)cc2OCc2ccccc2)C[C@@H]2CC[C@H]1N2C(=O)NCc1ccccc1 | inconclusive: 39.8 µM [inhibitor, single point]
O=C1NC(=S)NC(=O)C1=Cc1ccc(OCC(=O)N2CCCC2)cc1 | inactive
O=C(Nc1ccc(F)c(Cl)c1)N(Cc1ccc2c(c1)OCO2)C1CCN(Cc2ccccc2)CC1 | inconclusive: 31.6 µM [inhibitor, single point]
O=C1NC(=O)N(Cc2ccccc2)C(=O)/C1=C/C=C/c1ccco1 | inconclusive: 25.1 µM [inhibitor, single point]
CC(C)(C)c1cc([N+](=O)[O-])cc(C(C)(C)C)c1O | inconclusive: 10 µM [inhibitor, partial curve]
CCOC(=O)[C@]12Cc3cc(OC)ccc3[C@H]1N(C1CCCCC1)C(=O)c1cc(OC)ccc12 | active: 20 µM
CCCCC(=O)N/N=C/c1c(O)n(CCCC)c(=S)[nH]c1=O | inconclusive: 21.2 µM [inhibitor, partial curve, poor fit]
CCOc1ccc(-c2cc(C)[n+](CCc3ccc(OC)c(OC)c3)c(-c3ccc(OCC)cc3)c2)cc1 | inconclusive: 15 µM [inhibitor, partial curve]
CCCCCCCSc1cc(OC)c(CCN(C)C)cc1OC | active: 22.4 µM
COC(=O)C1=C(c2cc3ccccc3s2)C[C@@H]2CC[C@H]1N2C(=O)NC1CCCCC1 | inconclusive: 35.5 µM [inhibitor, partial curve]
CCCNC(=O)N1[C@H]2CC[C@@H]1C(C(=O)OC)=C(c1ccc(-c3ccccc3)c(F)c1)C2 | inconclusive: 22.4 µM [inhibitor, partial curve]
CCOC(=O)[C@]12Cc3ccc(C)cc3[C@H]1N(C1CCCCC1)C(=O)c1ccccc12 | active: 11.2 µM
CCCCCCCCCCCCn1ccc(=N)cc1 | inconclusive: 3.55 µM [inhibitor, partial curve, poor fit]
